Data taken from the supplement of paper PMC10037445.
Where “and” joins values, the source holds several entries; their conditions need not be identical. Identical values can stand only once. ± gives the standard deviation of the averaged measurements. In all, about 2,900 compounds were measured (“NF-kB SEAP reporter activity, fold change vs agonist alone”: median about 0.99, highest 2% from about 2.6 on). The list shows a part of the results.

Columns and labels:
RAW-Dual [1] = test: NF-kB SEAP reporter activity, fold change vs agonist alone; cytotoxicity flag (confluency mask): not cytotoxic; higher = enhanced NF-kB activity
In short: (§1)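 Library stock was pin-tooled at 50 nL into 384-well plates of RAW-Dual macrophages (50,000 cells/well, DMEM), followed 1 h later by a PRR agonist, and the cells were kept at 37 °C, 5% CO2. Supernatant collected after 20 hours was read for IRF by QuantiLuc luminescence and for NF-κB by QuantiBlue absorbance at 620 nm. Reporter activity is fold change over agonist-alone wells, and a well counted as cytotoxic when its IncuCyte confluency was below 70% of agonist controls in both mask sets.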

RAW-Dual [2] = test: NF-kB SEAP reporter activity, fold change vs agonist alone; higher = enhanced NF-kB activity
In short: as §1

RAW-Dual [3] = test: NF-kB SEAP reporter activity, fold change vs agonist alone; cytotoxicity flag (confluency mask): cytotoxic (confluency <70% of control); higher = enhanced NF-kB activity
In short: as §1

[4] = agonist: ODN 1826 (TLR9) 0.5 ug/mL
[5] = agonist: Pam2CSK4 (TLR2/6) 0.1 ug/mL
[6] = agonist: Pam3CSK4 (TLR2/1) 0.1 ug/mL
[7] = library stock concentration (final ~1000-fold dilution): 10 mM, cytotoxicity flag (confluency mask): not cytotoxic, agonist: Imiquimod (TLR7) […]
[8] = library stock concentration (final ~1000-fold dilution): 10 mM, cytotoxicity flag (confluency mask): not cytotoxic, agonist: MPLA (TLR4) […]

Which “NF-kB SEAP reporter activity” value (RAW-Dual [1]; agonist: LPS (TLR4) 0.1 ug/mL) does the source give for Cc1ccc(-c2csc(NC(=O)c3ccccc3)n2)c(C)c1 (library stock concentration (final ~1000-fold dilution): 10 mM) here?
Its value is 1.

What about the “NF-kB SEAP reporter activity” value (RAW-Dual [1]; [4]) of the same compound?
The value was 1.01.

What about the “NF-kB SEAP reporter activity” value (RAW-Dual [1]; [5]) of the same compound?
The value was 0.9.

And the “NF-kB SEAP reporter activity” value (RAW-Dual [1]; [6])?
The value was 1.15.

With Cc1ccc(-c2csc(NC(=O)c3ccccc3)n2)c(C)c1 as the compound, how does the “NF-kB SEAP reporter activity” value (RAW-Dual [2]; [7]) read?
The value was 0.985.

What about the “NF-kB SEAP reporter activity” value (RAW-Dual [2]; [8]) of the same compound?
Its value is 0.944.

Which results are given for CC(=O)NC1=NN(C(C)=O)C(C)(c2ccccc2)S1 (stereo not drawn)?
NF-kB SEAP reporter activity (RAW-Dual [2]; [7]): 1.02; NF-kB SEAP reporter activity (RAW-Dual [2]; [8]): 0.916

With CC(=O)NC1=NN(C(C)=O)C(C)(c2ccccc2)S1 (stereo not drawn) (library stock concentration (final ~1000-fold dilution): 10 mM) as the compound, how does the “NF-kB SEAP reporter activity” value (RAW-Dual [1]; agonist: LPS (TLR4) 0.1 ug/mL) read?
Its value is 0.649.

And the “NF-kB SEAP reporter activity” value (RAW-Dual [1]; [4])?
The value was 0.779.

What about the “NF-kB SEAP reporter activity” value (RAW-Dual [1]; [5]) of the same compound?
Its value is 0.693.

What about the “NF-kB SEAP reporter activity” value (RAW-Dual [1]; [6]) of the same compound?
The value was 0.899.

How did the “NF-kB SEAP reporter activity” value (RAW-Dual [1]; agonist: LPS (TLR4) 0.1 ug/mL) turn out when NC(Cc1ccc(Cl)cc1)C(=O)O (stereo not drawn) (library stock concentration (final ~1000-fold dilution): 10 mM) was run?
Its value is 0.981.

And the “NF-kB SEAP reporter activity” value (RAW-Dual [1]; [4])?
Its value is 1.05.

What about the “NF-kB SEAP reporter activity” value (RAW-Dual [1]; [5]) of the same compound?
Its value is 1.08.

What about the “NF-kB SEAP reporter activity” value (RAW-Dual [1]; [6]) of the same compound?
The value was 1.04.

NC(Cc1ccc(Cl)cc1)C(=O)O (stereo not drawn) was tested. Which “NF-kB SEAP reporter activity” value (RAW-Dual [2]; [7]) did it give?
Its value is 1.04.

What about the “NF-kB SEAP reporter activity” value (RAW-Dual [2]; [8]) of the same compound?
Its value is 1.08.

Which results are given for CC(C(=O)O)c1ccc2c(c1)Cc1cccnc1O2 (stereo not drawn) (library stock concentration (final ~1000-fold dilution): 10 mM)?
NF-kB SEAP reporter activity (RAW-Dual [1]; agonist: LPS (TLR4) 0.1 ug/mL): 1.32; NF-kB SEAP reporter activity (RAW-Dual [1]; [4]): 1.03; NF-kB SEAP reporter activity (RAW-Dual [1]; [5]): 1.05; NF-kB SEAP reporter activity (RAW-Dual [1]; [6]): 1.03

Which results are given for CC(C(=O)O)c1ccc2c(c1)Cc1cccnc1O2 (stereo not drawn)?
NF-kB SEAP reporter activity (RAW-Dual [2]; [7]): 0.936; NF-kB SEAP reporter activity (RAW-Dual [2]; [8]): 1.01

With O=C(N/N=C/c1cc(O)c(O)cc1O)c1cc2ccccc2cc1O as the compound, how does the “NF-kB SEAP reporter activity” value (RAW-Dual [2]; [7]) read?
Its value is 1.13.

And the “NF-kB SEAP reporter activity” value (RAW-Dual [2]; [8])?
Its value is 1.2.

How did the “NF-kB SEAP reporter activity” value (RAW-Dual [1]; agonist: LPS (TLR4) 0.1 ug/mL) turn out when O=C(N/N=C/c1cc(O)c(O)cc1O)c1cc2ccccc2cc1O (library stock concentration (final ~1000-fold dilution): 10 mM) was run?
The value was 1.68.

What about the “NF-kB SEAP reporter activity” value (RAW-Dual [1]; [4]) of the same compound?
The value was 1.

What about the “NF-kB SEAP reporter activity” value (RAW-Dual [1]; [5]) of the same compound?
Its value is 1.04.

And the “NF-kB SEAP reporter activity” value (RAW-Dual [1]; [6])?
Its value is 0.872.

Which “NF-kB SEAP reporter activity” value (RAW-Dual [2]; [7]) does the source give for CC(C)(C)C(=O)Oc1ccc(S(=O)(=O)Nc2ccccc2C(=O)NCC(=O)O)cc1 here?
The value was 0.966.

What does the source list for CC(C)(C)C(=O)Oc1ccc(S(=O)(=O)Nc2ccccc2C(=O)NCC(=O)O)cc1 (library stock concentration (final ~1000-fold dilution): 10 mM)?
NF-kB SEAP reporter activity (RAW-Dual [1]; agonist: LPS (TLR4) 0.1 ug/mL): 1.36 and 1.08; NF-kB SEAP reporter activity (RAW-Dual [1]; [4]): 0.906 and 0.939; NF-kB SEAP reporter activity (RAW-Dual [1]; [5]): 1.39 and 1; NF-kB SEAP reporter activity (RAW-Dual [1]; [6]): 0.652 and 1.02

N=C(N)Nc1nc(CSCCC(=N)NS(N)(=O)=O)cs1 (library stock concentration (final ~1000-fold dilution): 10 mM) was tested. Which “NF-kB SEAP reporter activity” value (RAW-Dual [1]; agonist: LPS (TLR4) 0.1 ug/mL) did it give?
Its value is 1.03.

What about the “NF-kB SEAP reporter activity” value (RAW-Dual [1]; [4]) of the same compound?
The value was 1.06.

What about the “NF-kB SEAP reporter activity” value (RAW-Dual [1]; [5]) of the same compound?
Its value is 1.25.

What about the “NF-kB SEAP reporter activity” value (RAW-Dual [1]; [6]) of the same compound?
The value was 1.09.

Which results are given for N=C(N)Nc1nc(CSCCC(=N)NS(N)(=O)=O)cs1?
NF-kB SEAP reporter activity (RAW-Dual [2]; [7]): 0.918; NF-kB SEAP reporter activity (RAW-Dual [2]; [8]): 1

For COc1cc(O)c2c(c1)oc(=O)c1c3cc(O)c(O)cc3oc21, which “NF-kB SEAP reporter activity” value (RAW-Dual [2]; [7]) is on record?
Its value is 0.951.

What about the “NF-kB SEAP reporter activity” value (RAW-Dual [2]; [8]) of the same compound?
Its value is 0.994.

Which “NF-kB SEAP reporter activity” value (RAW-Dual [1]; agonist: LPS (TLR4) 0.1 ug/mL) does the source give for COc1cc(O)c2c(c1)oc(=O)c1c3cc(O)c(O)cc3oc21 (library stock concentration (final ~1000-fold dilution): 10 mM) here?
The value was 0.879.

And the “NF-kB SEAP reporter activity” value (RAW-Dual [1]; [4])?
The value was 0.742.

And the “NF-kB SEAP reporter activity” value (RAW-Dual [1]; [5])?
The value was 0.672.

And the “NF-kB SEAP reporter activity” value (RAW-Dual [1]; [6])?
Its value is 0.484.

How did the “NF-kB SEAP reporter activity” value (RAW-Dual [2]; [7]) turn out when Cc1cc(C(N)=O)ccc1-n1c(CCC(=O)O)ccc1-c1ccc(-n2ccnc2)cc1 was run?
The value was 0.956.

And the “NF-kB SEAP reporter activity” value (RAW-Dual [2]; [8])?
The value was 1.01.

With Cc1cc(C(N)=O)ccc1-n1c(CCC(=O)O)ccc1-c1ccc(-n2ccnc2)cc1 (library stock concentration (final ~1000-fold dilution): 10 mM) as the compound, how does the “NF-kB SEAP reporter activity” value (RAW-Dual [1]; agonist: LPS (TLR4) 0.1 ug/mL) read?
Its value is 0.734.

And the “NF-kB SEAP reporter activity” value (RAW-Dual [1]; [4])?
The value was 0.995.

And the “NF-kB SEAP reporter activity” value (RAW-Dual [1]; [5])?
Its value is 1.14.

What about the “NF-kB SEAP reporter activity” value (RAW-Dual [1]; [6]) of the same compound?
The value was 0.822.

Which “NF-kB SEAP reporter activity” value (RAW-Dual [1]; agonist: LPS (TLR4) 0.1 ug/mL) does the source give for O=C(/C=C/c1ccc2ccccc2n1)c1ccncc1 (library stock concentration (final ~1000-fold dilution): 10 mM) here?
The value was 0.306.

And the “NF-kB SEAP reporter activity” value (RAW-Dual [1]; [4])?
The value was 0.525.

And the “NF-kB SEAP reporter activity” value (RAW-Dual [1]; [5])?
The value was 0.287.

And the “NF-kB SEAP reporter activity” value (RAW-Dual [1]; [6])?
The value was 0.331.

With O=C(/C=C/c1ccc2ccccc2n1)c1ccncc1 as the compound, how does the “NF-kB SEAP reporter activity” value (RAW-Dual [2]; [7]) read?
Its value is 0.526.

And the “NF-kB SEAP reporter activity” value (RAW-Dual [2]; [8])?
The value was 0.344.

With CCOC(=O)/C=C\C(=O)OCC (library stock concentration (final ~1000-fold dilution): 10 mM) as the compound, how does the “NF-kB SEAP reporter activity” value (RAW-Dual [1]; agonist: LPS (TLR4) 0.1 ug/mL) read?
The value was 0.819 ± 0.12.

And the “NF-kB SEAP reporter activity” value (RAW-Dual [1]; [4])?
Its value is 1.2 ± 0.62.

And the “NF-kB SEAP reporter activity” value (RAW-Dual [1]; [5])?
The value was 0.786 ± 0.041.

And the “NF-kB SEAP reporter activity” value (RAW-Dual [1]; [6])?
The value was 0.81 ± 0.066.

For CCOC(=O)/C=C\C(=O)OCC, which “NF-kB SEAP reporter activity” value (RAW-Dual [2]; [8]) is on record?
The value was 1.56 ± 0.87.

With COC(=O)C1=C(C)NC(C)=C(C(=O)OCCN2CCN(C(c3ccccc3)c3ccccc3)CC2)C1c1cccc([N+](=O)[O-])c1 (stereo not drawn) as the compound, how does the “NF-kB SEAP reporter activity” value (RAW-Dual [2]; [7]) read?
The value was 0.522.

And the “NF-kB SEAP reporter activity” value (RAW-Dual [2]; [8])?
The value was 0.869.

Which results are given for COC(=O)C1=C(C)NC(C)=C(C(=O)OCCN2CCN(C(c3ccccc3)c3ccccc3)CC2)C1c1cccc([N+](=O)[O-])c1 (stereo not drawn) (library stock concentration (final ~1000-fold dilution): 10 mM)?
NF-kB SEAP reporter activity (RAW-Dual [1]; agonist: LPS (TLR4) 0.1 ug/mL): 0.908; NF-kB SEAP reporter activity (RAW-Dual [1]; [4]): 0.387; NF-kB SEAP reporter activity (RAW-Dual [1]; [5]): 0.245; NF-kB SEAP reporter activity (RAW-Dual [1]; [6]): 0.398

How did the “NF-kB SEAP reporter activity” value (RAW-Dual [2]; library stock concentration (final ~1000-fold dilution): 10 mM, cytotoxicity flag (confluency mask): cytotoxic (confluency <70% of control), agonist: Imiquimod (TLR7) […]) turn out when CCOc1nc2cccc(C(=O)OC(C)OC(=O)OC3CCCCC3)c2n1Cc1ccc(-c2ccccc2-c2nnn[nH]2)cc1 (stereo not drawn) was run?
The value was 0.702.

What about the “NF-kB SEAP reporter activity” value (RAW-Dual [2]; library stock concentration (final ~1000-fold dilution): 10 mM, cytotoxicity flag (confluency mask): cytotoxic (confluency <70% of control), agonist: MPLA (TLR4) […]) of the same compound?
The value was 0.759.

What does the source list for CCOc1nc2cccc(C(=O)OC(C)OC(=O)OC3CCCCC3)c2n1Cc1ccc(-c2ccccc2-c2nnn[nH]2)cc1 (stereo not drawn) (library stock concentration (final ~1000-fold dilution): 10 mM)?
NF-kB SEAP reporter activity (RAW-Dual [3]; agonist: LPS (TLR4) 0.1 ug/mL): 0.758; NF-kB SEAP reporter activity (RAW-Dual [3]; [4]): 0.425; NF-kB SEAP reporter activity (RAW-Dual [3]; [5]): 0.297; NF-kB SEAP reporter activity (RAW-Dual [3]; [6]): 0.336

Cn1cc(CC(N)C(=O)O)c2ccccc21 (stereo not drawn) was tested. Which “NF-kB SEAP reporter activity” value (RAW-Dual [2]; library stock concentration (final ~1000-fold dilution): 2 mM, cytotoxicity flag (confluency mask): not cytotoxic, agonist: Imiquimod (TLR7) […]) did it give?
Its value is 0.994.

And the “NF-kB SEAP reporter activity” value (RAW-Dual [2]; library stock concentration (final ~1000-fold dilution): 2 mM, cytotoxicity flag (confluency mask): not cytotoxic, agonist: MPLA (TLR4) […])?
Its value is 1.05.
